The other results are listed elsewhere or left out.
T1: UNK ZnF1-3 (human, UniProt Q9C0B0 31-174)
T1 sequence: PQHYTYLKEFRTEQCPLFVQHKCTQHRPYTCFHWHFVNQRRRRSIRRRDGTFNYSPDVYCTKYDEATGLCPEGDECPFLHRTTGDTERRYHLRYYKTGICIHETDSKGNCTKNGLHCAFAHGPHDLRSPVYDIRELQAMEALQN

B1: chr8:126034020:126034021:+_ENSG00000104549_ENST00000265896|hu_mus|FALSE|FALSE (ssRNA)
RNA: GGGAGUUCUACAGUCCGACGAUCUUUGAAGCAGAAAUACGUGGCGUAGAUUGCAACGGAAAAGAAGUGUCGAAUCAACACCAGAGGGUGAGGAGACAAUAUUGAAAGCAACCCAACAGGACCGGUCACACACUCUCCACCAAGCAACAGAGGAUUGAGCAUCA
B2: chr11:4127340:4127341:+_ENSG00000167325_ENST00000300738|hu_mus|hu_hu_hu_mus_False|28_58 (ssRNA)
RNA: GGGAGUUCUACAGUCCGACGAUCGGCAUAGUCAGGGUGCUUCGUGGUCAAGGUCGCGGCUGUCUCAGCAGCCAGGGUAUCUAGUUCCACUGUGGUGACCCCACUAUACAAGCCUUGGAUUACUUUCAUGGUGAUCUGAGCAGGCAACAGAGGAUUGAGCAUCA
B3: chr3:148802587:148802588:-_ENSG00000071794_ENST00000310053|hu_mus|hu_hu_hu_mus_False|78_108 (ssRNA)
RNA: GGGAGUUCUACAGUCCGACGAUCUCCAACCACAUGACCUCUCAUAGUUCCAAAUAAAACGGAAUCUUGCUCUUCAUCACUCGUUAGGAAGUCAUCUGGAGGAAUAAUGUCUUGGAAUUCAAAAUGUGGCAAGAAAGUUGAGUACAACAGAGGAUUGAGCAUCA
B4: chr14:31077228:31077229:+_ENSG00000092140_ENST00000206595|hu_hu|motif|central (ssRNA)
RNA: GGGAGUUCUACAGUCCGACGAUCUGUUGCAGUAUUUAUCCUGAUUAUAAUCUGUGCCACAUCAAAGUCUGAAACAUCAUCGGAAAUUGGCUGGGUAUUUUCUGGUCCAUAAACAAGGCAGUUAAACAAGGUUUUAGAAAAGAACAACAGAGGAUUGAGCAUCA
B5: chr13:113752066:113752067:+_ENSG00000126217_ENST00000375604|hu_hu|FALSE|FALSE (ssRNA)
RNA: GGGAGUUCUACAGUCCGACGAUCGGUGCGGCCUCCGAGGAGGCUGCAGUGCAGUGAGGCAGGGGCAGGGCUCUCUGAGCUAUGGUCGGCAGCACUGGUCCACGCCACACCCUGCAGAAACUGCAUCUUUGUAUUUUCUUUAAACAACAGAGGAUUGAGCAUCA
B6: chr7:151048522:151048523:+_ENSG00000013374_ENST00000566856|hu_mus|hu_hu_hu_mus_True|48_48 (ssRNA)
RNA: GGGAGUUCUACAGUCCGACGAUCCUGUUUCUUAUUUAUUACGAUCUUGAUGUAAUUUUCUUGAAAUCCGAAAGUUUCAGCUAUUUGGGACCUCAGUUCUCUACCAGUGACAUGCAAGCGGGUCUCCAACAAGCUUUUCUUAUCCAACAGAGGAUUGAGCAUCA
B7: chrX:98860016:98860017:+_ENSMUSG00000034160_ENSMUST00000044475|mus_hu|FALSE|FALSE (ssRNA)
RNA: GGGAGUUCUACAGUCCGACGAUCCUCCUUAUAAUGCAUCAGAGCUUCCUGCAGUUUUCCCUGCUGCUGCAGUACACUUGCUAAAUUUGAAUGGGCAGCAGCAAACUCUGGGAAGACUUCUAAUGCUUUACGAUACAAGCGAACCAACAGAGGAUUGAGCAUCA
B8: chr3:9412954:9412955:+_ENSG00000134077_ENST00000452837|hu_mus|hu_hu_hu_mus_False|48_58 (ssRNA)
RNA: GGGAGUUCUACAGUCCGACGAUCGGUUGAUAUCUCUUCUUUGAUGGCUGGAUUUUCAUAAUAGUCCAAGAUAUGUGAAUCUAAAGCAUGGCUAGUGUGCUUUUUCUUACCAUCUUUCUCAUCUGCUUUGUCUCCUUGUCCACACAACAGAGGAUUGAGCAUCA
B9: chr3:95733387:95733388:+_ENSMUSG00000015749_ENSMUST00000165307|mus_hu|FALSE|FALSE (ssRNA)
RNA: GGGAGUUCUACAGUCCGACGAUCAGAUAGGUGUGGGGGAGAAAGAAGAGAAUAGCAAAUGGAGUCCAAGAGUUGGGACUCUAACUCAGCUGCCCCCACCUCCUUGUCCACACACUAGCGCGCGCACACACACGCACGCACGCGCAACAGAGGAUUGAGCAUCA
B10: chr16:20552630:20552631:+_ENSMUSG00000003234_ENSMUST00000003319|mus_hu|FALSE|FALSE (ssRNA)
RNA: GGGAGUUCUACAGUCCGACGAUCGAGUUUACUCUGCACUUGAGAGGCCCUGUUGGCAUUGUAGCGAAACCGGUCAAUGAAAACCUGGAUGUGCUGGCGAUACUGCUGCUGCGCCUCAUAUUCACGCUGCUGGUUGAGCAGCCGCAACAGAGGAUUGAGCAUCA
B11: chr1:39494447:39494448:+_ENSG00000168653_ENST00000372967|hu_mus|hu_hu_hu_mus_False|38_108 (ssRNA)
RNA: GGGAGUUCUACAGUCCGACGAUCGCAUCGACCAGCCUUCUUAUAGGGCUGUUCUGCGCUUAGGAACAUAAAGUGCCGGUCCAGGCUGAUGCCCAGCCUUUUCUGGAUGUCAAGGAAAGGCAUGGCUCUGCAGUGCCCUUGUCACAACAGAGGAUUGAGCAUCA
B12: chrX:140365796:140365797:-_ENSMUSG00000031285_ENSMUST00000033642|mus_mus|mus_mus_mus_hu_False|28_28 (ssRNA)
RNA: GGGAGUUCUACAGUCCGACGAUCCUUCUCAUUACUCAGUGCCUGCAAGGUUCUGGUUCGGUAGAAGCUACAGUGGGCGCUGUGAGUGGGGCUAGGCAACCCAUUCAUCCGUGACCCUCGCAUGUUCCUGGAUGUCUUAUCUCUCAACAGAGGAUUGAGCAUCA
B13: chr14:70237991:70237992:+_ENSG00000100650_ENST00000557154|hu_mus|motif|central (ssRNA)
RNA: GGGAGUUCUACAGUCCGACGAUCCCUGCUCCUUGAUCGGCUGUAAGACUUGCUCCUUCGUGAACGGGAUCGGCUACGGGACCGGGAGGAACUUCUGGUCCGAGAUCGUGACCUGCUUCUUGACCUGUGCCUUUUGCUGCCUUCCAACAGAGGAUUGAGCAUCA
B14: chr3:176767854:176767855:-_ENSG00000177565_ENST00000430069|hu_hu|hu_hu_hu_mus_False|8_28 (ssRNA)
RNA: GGGAGUUCUACAGUCCGACGAUCGACAUCCUUGUUACUGGGCACGUCCUGCCCUCCUUCCCGUAUGCAGUGUCUAAGCACGAGCUGCGUAGGGCCACUCGUGCUGUUCUCACUAAGGUUCCAGAUUCUUGCUGUUGAGUCUCCCAACAGAGGAUUGAGCAUCA
B15: 71494177_71494297_5353_CDS_ENSG00000131711_ENST00000296755|human|control|control (ssRNA)
RNA: GGGAGUUCUACAGUCCGACGAUCAGGUGGUAUCUUAUGUGAUAAACUGGAGUCCUGCAUGUCAGAAGGACUGUAGUCCACUUCAGUUGGCCCAUUUUCAGUGAUGUGAAGCACGCCUGCACCCACUGUAGGGUGAUCUGGAGACAACAGAGGAUUGAGCAUCA
B16: chr17:34985079:34985080:-_ENSMUSG00000040356_ENSMUST00000046022|mus_hu|FALSE|FALSE (ssRNA)
RNA: GGGAGUUCUACAGUCCGACGAUCAGCCGAGAGAUUUGUGUUCUCCAGCAAGACCUCUUUGUAACCCAGUAUCUGGCCUGUGGUUGGGUGUCUUUGGGCCUGUAGGUCGGAUGGGACUGGGGCUCCCAGGACAGCCAAAAGAGACAACAGAGGAUUGAGCAUCA
B17: chr14:57741442:57741443:+_ENSG00000053770_ENST00000261558|hu_hu|motif|central (ssRNA)
RNA: GGGAGUUCUACAGUCCGACGAUCAGUUUUCCAAGCUGGCUGUUUCUGUGGCUGAGUCACAGAUGCAAAAUUGGUAUUAUCGGAUGAAUUCUGUAAGUUGGCAUCUAAUAAAGUACCAAAUGGACAAGCCUGCAGAAGCAAGUCCAACAGAGGAUUGAGCAUCA
B18: chr12:96407613:96407614:-_ENSG00000111144_ENST00000228740|hu_mus|FALSE|FALSE (ssRNA)
RNA: GGGAGUUCUACAGUCCGACGAUCCUUCCAGUCAUCAGUCGUUACACUUUGGUAGGAAAACUUCUUAACAUAAGCCUUUAAGAAUCCUAGAAACACCUCUGGUCCCCCAAGAAGCUGUUCAAGGUAGAAGAGUAGCGCAAAGCCCAACAGAGGAUUGAGCAUCA
B19: chr16:45382771:45382772:-_ENSMUSG00000022661_ENSMUST00000163230|mus_mus|mus_mus_mus_hu_True|8_68 (ssRNA)
RNA: GGGAGUUCUACAGUCCGACGAUCCUGGGUCAUGUUAUAAGACAAAUGGACAGGGAGGGCAUGCUUCUGUAAAGAUGUGAGCUAUUGUCUAAGACUAACAAUAUUUAUCUAGCUAUAAAAAUAAGUUUUAAAUGGACGUUAAGACAACAGAGGAUUGAGCAUCA
B20: chr14:89307221:89307222:+_ENSG00000165533_ENST00000346301|hu_mus|hu_hu_hu_mus_False|58_108 (ssRNA)
RNA: GGGAGUUCUACAGUCCGACGAUCUCCUGUCUGAUUAGUGCCAGGGAGCUUCAAAGAUGUGCCAGGGCGUGGGACCUGAGCUAUAGCAUUUUCAUCCAGGAUCAUUUCAGCAAUUCCUUCCUGGUCCACAUCAAUUUCAUCUAUCAACAGAGGAUUGAGCAUCA
B21: 44043828_44043948_361_CDS_ENSG00000167004_ENST00000538521|human|control|control (ssRNA)
RNA: GGGAGUUCUACAGUCCGACGAUCAAUCUCCAGAAAUCUGGGGAGCAACCAGGUGUGUGUGUAAGCUGCAAGGCUGGGACUAAAAUCCACUGCCUUAAACUUUGGCAAUAUCCAUAAGGUCAUCAAAUCCACAAAAAGAGUUUCCAACAGAGGAUUGAGCAUCA
B22: 193605556_193605676_4715_3pUTR_ENSMUSG00000026623_ENSMUST00000110855|mouse|control|control (ssRNA)
RNA: GGGAGUUCUACAGUCCGACGAUCGAUUAUAACUAGGAACAACUAGUUGAGCAAGUCUUUAAGGUACCGAUUGUCAAAAUACAUCACUAAGACAAAUUAAUGAGAAGGAAUCCACAAGGCGUGAGUGAGAGAGCAUCCUCAGCACAACAGAGGAUUGAGCAUCA

biological target: T1, UNK ZnF1-3; experiment: nsRBNS (natural sequence RNA bind-n-seq); RBNS binding buffer (assumed for nsRBNS): 25 mM Tris pH 7.5, 150 mM KCl, 3 mM MgCl2, 0.01% Triton X-100, 500 ug/ml BSA, 20 U/ml SUPERase-In, 4 C; UNK is unkempt and MSI1 is Musashi-1; names of the RNAs are library labels; protein concentration not given here; high values mean tight binding

Binder	binding signal
B1	1.73 enrichment R
B2	0.801 enrichment R
B3	1.41 enrichment R
B4	1.43 enrichment R
B5	0.717 enrichment R
B6	0.677 enrichment R
B7	0.396 enrichment R
B8	0.435 enrichment R
B9	0.54 enrichment R
B10	0.605 enrichment R
B11	0.793 enrichment R
B12	0.771 enrichment R
B13	0.724 enrichment R
B14	0.414 enrichment R
B15	0.359 enrichment R
B16	0.927 enrichment R
B17	0.772 enrichment R
B18	1.37 enrichment R
B19	2.84 enrichment R
B20	0.819 enrichment R
B21	1.41 enrichment R
B22	2.29 enrichment R

Reference: PMC12136788
